The campaign covered roughly 220,000 compounds. About 5,700 (2.6%) were called active. This list was built around the results that the source calls inconclusive (neither active nor inactive); the mix of calls is not that of the screen. Calls follow the shape of the dose curve; as a rule, active = well fitted inhibition curve with a large enough effect; inconclusive = small, poorly fitted or top-dose-only effect; inactive = no such curve, though single readings can be large or run the other way. Potencies beside an inconclusive call are fits to weak or partial responses and may not hold up.
Each compound was assayed against Lysine-specific demethylase 5B (Homo sapiens) (UniProt Q9UGL1) (assay: Primary screen for KDM5B Histone Demethylases FDH-coupled qHTS). Details: FDH-coupled NADH fluorescence (FDH is formaldehyde dehydrogenase); activity change, negative = inhibition: at 57.7 µM (top of the series) unless noted.
Outline: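 Compound dilutions met 200 nM (final) KDM5BΔAP for 10 min at room temperature before substrate addition. The substrate mix held 12.5 µM H3K4me3 with cofactors 25 µM α-ketoglutarate and 50 µM Fe²⁺. NADH signal gain over 30 min defined activity.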
Also: nearly all actives have a fitted effect of over 70% in size.
For activity change, negative = inhibition in this document: 0% is about no effect.
Potency is read from the fitted curve at half-maximal effect; tags tell the direction and shape of the fitted curve.

Chain of UniProt Q9UGL1 (Q9UGL1 whole entry, looked up): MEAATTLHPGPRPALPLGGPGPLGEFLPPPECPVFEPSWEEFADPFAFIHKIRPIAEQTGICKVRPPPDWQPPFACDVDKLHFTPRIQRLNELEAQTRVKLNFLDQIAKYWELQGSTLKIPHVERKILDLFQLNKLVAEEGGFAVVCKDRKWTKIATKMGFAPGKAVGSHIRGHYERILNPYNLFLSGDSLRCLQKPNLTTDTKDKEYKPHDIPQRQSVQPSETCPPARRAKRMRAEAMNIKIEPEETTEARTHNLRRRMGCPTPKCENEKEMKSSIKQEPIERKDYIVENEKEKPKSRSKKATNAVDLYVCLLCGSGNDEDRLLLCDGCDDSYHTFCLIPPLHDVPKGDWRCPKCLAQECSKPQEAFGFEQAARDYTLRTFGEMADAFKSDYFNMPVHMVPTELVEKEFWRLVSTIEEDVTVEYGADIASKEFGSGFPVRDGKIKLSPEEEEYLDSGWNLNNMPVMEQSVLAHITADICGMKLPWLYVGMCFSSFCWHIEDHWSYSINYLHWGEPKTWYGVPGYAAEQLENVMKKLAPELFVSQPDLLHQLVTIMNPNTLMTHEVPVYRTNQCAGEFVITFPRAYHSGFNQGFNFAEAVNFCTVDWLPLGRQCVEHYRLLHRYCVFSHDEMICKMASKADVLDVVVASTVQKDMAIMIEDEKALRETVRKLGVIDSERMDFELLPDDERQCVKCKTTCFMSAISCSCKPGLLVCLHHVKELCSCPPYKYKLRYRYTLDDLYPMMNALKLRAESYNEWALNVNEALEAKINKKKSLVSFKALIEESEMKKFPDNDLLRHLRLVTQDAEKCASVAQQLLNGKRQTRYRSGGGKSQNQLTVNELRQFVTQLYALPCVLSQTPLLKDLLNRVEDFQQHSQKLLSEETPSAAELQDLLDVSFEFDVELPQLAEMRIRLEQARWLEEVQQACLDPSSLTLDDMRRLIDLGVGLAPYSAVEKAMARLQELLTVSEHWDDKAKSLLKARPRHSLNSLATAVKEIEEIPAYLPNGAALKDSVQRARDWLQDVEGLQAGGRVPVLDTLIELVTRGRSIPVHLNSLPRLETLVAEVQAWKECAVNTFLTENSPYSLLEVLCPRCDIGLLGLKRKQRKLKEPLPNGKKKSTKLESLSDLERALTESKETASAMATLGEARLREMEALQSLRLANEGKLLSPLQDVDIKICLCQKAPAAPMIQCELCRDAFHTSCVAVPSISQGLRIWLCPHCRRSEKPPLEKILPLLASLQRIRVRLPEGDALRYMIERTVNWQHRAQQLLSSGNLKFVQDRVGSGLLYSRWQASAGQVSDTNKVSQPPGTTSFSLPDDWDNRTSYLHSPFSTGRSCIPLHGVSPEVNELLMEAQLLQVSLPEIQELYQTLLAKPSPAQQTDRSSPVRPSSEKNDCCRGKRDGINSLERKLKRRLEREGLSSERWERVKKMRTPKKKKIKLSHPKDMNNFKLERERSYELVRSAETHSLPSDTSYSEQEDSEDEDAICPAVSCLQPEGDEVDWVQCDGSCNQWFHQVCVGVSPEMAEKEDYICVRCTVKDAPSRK

| SMILES | Potency | activity change, negative = inhibition |
| --- | --- | --- |
| Cc1ccc(C2CC(=O)N3CN(Cc4ccccc4)CSC3=C2C#N)cc1 (stereo not drawn) | inconclusive: 12.6 µM [inhibitor, partial curve, poor fit] |  |
| CNc1ccc(OC2CCN(C(=O)CCc3nc4ccccc4[nH]3)C2)nc1 (stereo not drawn) | active: 28.2 µM |  |
| Cc1ccc(CN2CCCN(S(C)(=O)=O)C(c3ccccc3)CC(=O)NCC2)o1 (stereo not drawn) | inconclusive: 39.8 µM [inhibitor, single point] |  |
| Cc1cccc(NC(=O)CSc2nc3ccccc3nc2N2CCOCC2)c1C | inconclusive: 3.16 µM [inhibitor, partial curve, poor fit] |  |
| CCC(C)(C)C1CCc2c(sc(NC(=O)/C=C/c3ccc(C(C)C)cc3)c2C#N)C1 (stereo not drawn) |  | inactive: -9.48% |
| CN(C)c1ccc(-c2ccnc(N[C@H]3CO[C@H]4[C@@H]3OC[C@@H]4NC(=O)CSCC(=O)O)n2)cc1 | inconclusive: 28.2 µM [inhibitor, partial curve, poor fit] |  |
| Cc1ccc(Sc2c(C)nn(C(=O)c3ccc(Cl)cc3)c2C)cc1 | inconclusive: 39.8 µM [inhibitor, single point] |  |
| Cc1c(C(=O)OC(C)C)sc(NC(=O)C2c3ccccc3Oc3ccccc32)c1C(=O)OC(C)C | inconclusive: 31.6 µM [inhibitor, partial curve, poor fit] |  |
| CC(=O)N(Cc1ccccc1)Cc1cc2ccccc2[nH]c1=O | inconclusive: 22.4 µM [inhibitor, partial curve, poor fit] |  |
| CC(O)CNC(=O)C1CCN(Cc2nnnn2-c2ccccc2)CC1 (stereo not drawn) |  | inactive: -17.8% |
| Cc1ccc(-n2c3nc(=O)[nH]c(=O)c-3cc3c(C)nn(-c4ccccc4)c32)cc1C | inconclusive: 4.47 µM [inhibitor, full curve, poor fit] |  |
| CCOC(=O)c1cccc(NS(=O)(=O)c2cc(-c3cnc(C4CC4)o3)ccc2C)c1 | inconclusive: 35.5 µM [inhibitor, single point] |  |
| CCOc1cc(C(=O)N(c2cc(C)cc(C)c2)C2C=CS(=O)(=O)C2)cc(OCC)c1OCC (stereo not drawn) |  | inactive: 21.6% |
| CCOc1c(Cl)cc(/C=C/C(=O)c2ccc(OC(F)F)cc2)cc1OC |  | inactive: 16.1% |
| COc1ccc(NC(=O)Cn2cc(C(=O)c3ccccc3)c(=O)c3cc(OC)ccc32)c(OC)c1 |  | inactive: -4.13% |
| NS(=O)(=O)c1ccc(NC(=O)c2cc3ncccn3n2)cc1 |  | inactive: -16.3% |
| Cc1cc(C)cc(Nc2nc(C)cc(=O)n2CC(=O)Nc2cccc(Br)c2)c1 | active: 28.2 µM |  |
| CC1(C)CC(=O)c2cc(C#N)c(=O)n(-c3ccc(Cl)cc3)c2C1 | inconclusive: 25.1 µM [inhibitor, single point] |  |
| CCOc1ccc(C2Cn3nnc(-c4nc(-c5ccccc5Br)no4)c3CO2)cc1 (stereo not drawn) | active: 22.4 µM |  |
| CCN1c2cc(C(=O)Nc3cc(OC)c(OC)c(OC)c3)ccc2C(=O)N2CCCC21 (stereo not drawn) | inconclusive: 25.1 µM [inhibitor, partial curve, poor fit] |  |
| COc1ccc2[nH]c(C(=O)NCc3ccccn3)c(C)c2c1 | inconclusive: 20 µM [inhibitor, partial curve, poor fit] |  |

| SMILES | Potency | activity change, negative = inhibition |
| --- | --- | --- |
| Cc1cc(C)cc(NC(=O)Nc2ccc3nc(N4CCN(C)CC4)cc(C)c3c2)c1 | inconclusive: 2.24 µM [inhibitor, full curve, poor fit] |  |
| O=C(NC1CCCCC1)N1Cc2[nH]cnc2C[C@H]1c1nc(-c2ccc(F)c(Cl)c2)no1 | inconclusive: 10 µM [inhibitor, partial curve] |  |
| CCOc1ccc(NC(=O)N2CCC(N3CC4CC(C3)[C@H]3CCCC(=O)N3C4)CC2)cc1 (stereo partly drawn) | inconclusive: 17.8 µM [inhibitor, partial curve, poor fit] |  |
| Cc1nc(N2CCCC2)c2c(C(=O)Nc3cccc(Cl)c3)c(C)oc2n1 | inconclusive: 14.1 µM [inhibitor, partial curve, poor fit] |  |
| COc1cccc(CNC(=O)Nc2cccc(-c3ccc(N4CCOCC4)nn3)c2)c1 |  | inactive: 2.1% |
| COc1cccc(CC(=O)NCc2nnc3c(-c4nc(C(C)C)no4)cccn23)c1 | inconclusive: 31.6 µM [inhibitor, single point] |  |
| O=C(NC1CCN(Cc2ccccc2)CC1)c1c(OCC2CC2)cc(=O)n2c1CCCCC2 |  | inactive: -7.16% |
| CC(CNC(=O)CCc1cn(Cc2ccccc2Cl)c2ccccc12)c1ccccc1 (stereo not drawn) | inconclusive: 15.8 µM [inhibitor, partial curve, poor fit] |  |
| O=C(/C=C/c1ccco1)NC1CCC(c2ccccc2)CC1 (stereo not drawn) | inconclusive: 39.8 µM [inhibitor, single point] |  |
| CCc1nnc(NC(=O)c2cc(=O)c3cc(C)cc(C)c3o2)s1 |  | inactive: 2.18% |
| COc1ccc(C2Cn3nnc(-c4nc(-c5cccc(C(F)(F)F)c5)no4)c3CO2)cc1 (stereo not drawn) | inconclusive: 25.1 µM [inhibitor, partial curve] |  |
| CSc1ccc(CNC(=O)c2cc3n(n2)CC(c2ccc(Cl)cc2)OC3)cc1 (stereo not drawn) | inconclusive: 22.4 µM [inhibitor, single point] |  |
| O=C(Cn1c(=O)n(Cc2ccccc2)c(=O)c2sc3ccccc3c21)Nc1ccccc1F | inconclusive: 1.26 µM [inhibitor, full curve, poor fit] |  |
| O=C(NC1CCCc2ccccc21)c1ccc2c(c1)sc1nc(-c3ccccc3)cn12 (stereo not drawn) | inconclusive: 15.8 µM [inhibitor, partial curve, poor fit] |  |
| CC(C)C1N=C2c3ccccc3N=C(SCC(=O)NCc3ccc(Cl)cc3)N2C1=O (stereo not drawn) | inconclusive: 28.2 µM [inhibitor, partial curve, poor fit] |  |
| COc1cccc(CNC(=O)[C@@H]2C[C@@H](O)CN2C2CCN(C(=O)c3cccc4nccnc34)CC2)c1 | inconclusive: 22.4 µM [inhibitor, partial curve, poor fit] |  |
| CC(C)c1noc(-c2ccn3c(CNC(=O)c4ccco4)nnc3c2)n1 | active: 28.2 µM |  |
| O=C(NCc1ccccc1)c1ccc(-c2ccc(N3CCSCC3)nc2)cc1 | inconclusive: 3.16 µM [inhibitor, full curve, poor fit] |  |
| CC(C)(C(=O)NCCc1ccccc1)C1CCOCC1 |  | inactive: -20.9% |
| COc1ccc(-c2cc(N3CCC(NC(=O)c4ccccc4C)C3)n[nH]2)cc1 (stereo not drawn) |  | inactive: -21.8% |
| O=C(Cc1ccc(Cl)cc1)N1CCC2(CC1)NC(=O)N(c1ccc(F)cc1)N2 | inconclusive: 20 µM [inhibitor, partial curve, poor fit] |  |

| SMILES | Potency | activity change, negative = inhibition |
| --- | --- | --- |
| CC(C)c1cc(=O)oc2cc(OCC(=O)N3CCCCC3)ccc12 | inconclusive: 28.2 µM [inhibitor, partial curve, poor fit] |  |
| O=C(Nc1ccccc1C(F)(F)F)c1ccc(Cl)c(Cl)c1 |  | inactive: 8.67% |
| COCCNC(=O)C(NC(=O)c1ccccc1Cl)C1CCN(C(=O)C2CCCC2)CC1 (stereo not drawn) |  | inactive: 5.85% |
| S=C(NCc1cccs1)Nc1ccc(Br)cc1 |  | inactive: 7.39% |
| Cc1ccc(Nc2nc(N)c(C#N)c(CC#N)c2C#N)c(C)c1 | inconclusive: 25.1 µM [inhibitor, partial curve, poor fit] |  |
| O=C(COc1ccc(F)cc1)NCC(c1ccc(Cl)cc1)N1CCCCC1 (stereo not drawn) |  | inactive: -15.1% |
| COc1ccc2[nH]c3c(c2c1)CCNC31CCN(C(=O)c2cnn(C)c2)CC1 | inconclusive: 20 µM [inhibitor, partial curve] |  |
| CCCn1ccnc1CN1CCc2nc(-c3ccc(Cl)cc3)[nH]c2C1 | inconclusive: 22.4 µM [inhibitor, single point] |  |
| O=C(O)COc1ccc(-c2nccc3c2C(=O)N(Cc2cccc(C(F)(F)F)c2)CC(CNC(=O)C2CCOCC2)O3)cc1 (stereo not drawn) | inconclusive: 17.8 µM [inhibitor, single point] |  |
| O=C(O)CC/C(=C/c1ccc2ccccc2c1)c1nc2ccccc2s1 | inconclusive: 17.8 µM [inhibitor, partial curve, poor fit] |  |
| Cc1ccc(Nc2ccc(N3CCN(S(=O)(=O)c4ccc(C)cc4)CC3)nn2)cc1 |  | inactive: -9.79% |
| COc1cc2c(cc1OC)CN(C(=O)/C=C/c1cc(OC)c(OC)c(OC)c1)CC2 | inconclusive: 22.4 µM [inhibitor, partial curve, poor fit] |  |
| Cc1cc(-c2nc3ncccc3o2)ccc1NC(=O)c1ccccc1Br | inconclusive: 44.7 µM [inhibitor, single point] |  |
| Cc1ccc(S(=O)(=O)N(C)C)cc1C(=O)NCc1coc(-c2cccs2)n1 | inconclusive: 15.8 µM [inhibitor, single point] |  |
| Cc1ccccc1Cn1cc(-c2ccncc2)cc1C(=O)N1CCN(c2ccccc2)CC1 | inconclusive: 31.6 µM [inhibitor, single point] |  |
| OCC1CN(Cc2ccc(Br)cc2)CC12CCNCC2 (stereo not drawn) | inconclusive: 28.2 µM [inhibitor, partial curve, poor fit] |  |
| CCCCOc1cccc(C(=O)N(Cc2ccc(N(C)C)cc2)C2CCS(=O)(=O)C2)c1 (stereo not drawn) | inconclusive: 14.1 µM [inhibitor, partial curve, poor fit] |  |
| Cn1cccc1CN1C[C@@H](CO)[C@H](c2ccncc2)C1 | inconclusive: 31.6 µM [inhibitor, partial curve, poor fit] |  |
| COc1ccc(C2C(C#N)=C(N)OC3=C2C(=O)CC(C)(C)C3)c2ccccc12 (stereo not drawn) | inconclusive: 39.8 µM [inhibitor, single point] |  |
| COC(=O)c1ccccc1NC(=O)c1cnc(Nc2ccc(OC)cc2)c2ccccc12 | inconclusive: 35.5 µM [inhibitor, partial curve, poor fit] |  |
| CCn1nc(NC(=O)c2ccco2)c2cc3cc(C)ccc3nc21 | inconclusive: 25.1 µM [inhibitor, partial curve, poor fit] |  |

Reference: PubChem BioAssay AID1347165 (National Center for Advancing Translational Sciences (NCATS), 2019)
